Measurements as given in the supplement of paper PMC10037445.
Over roughly 2,900 compounds, “NF-kB SEAP reporter activity, fold change vs agonist alone” has its median near 0.99; the highest 2% begin near 2.6. The list shows a part of the results.

Key:
[1] = test system: RAW-Dual; assay: NF-kB SEAP reporter activity, fold change vs agonist alone; higher = enhanced NF-kB activity; details: library stock concentration (final ~1000-fold dilution): 10 mM
In short: (§1)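 Cytotoxic wells were those whose IncuCyte confluency was below 70% of agonist controls in both mask sets. The cells were RAW-Dual macrophages at 50,000 cells/well in DMEM on 384-well plates, dosed with 50 nL of library stock by pin tool, stimulated with a PRR agonist 1 h later, and kept at 37 °C, 5% CO2 for 20 hours. IRF and NF-κB reporter activity, as fold change over agonist-alone wells, came from supernatant read by QuantiLuc luminescence and QuantiBlue absorbance, respectively.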

[2] = test system: RAW-Dual; assay: NF-kB SEAP reporter activity, fold change vs agonist alone; cytotoxicity flag (confluency mask): not cytotoxic; higher = enhanced NF-kB activity
In short: as §1

[3] = test system: RAW-Dual; assay: NF-kB SEAP reporter activity, fold change vs agonist alone; cytotoxicity flag (confluency mask): cytotoxic (confluency <70% of control); higher = enhanced NF-kB activity
In short: as §1

[4] = cytotoxicity flag (confluency mask): not cytotoxic, agonist: Imiquimod (TLR7) […]
[5] = cytotoxicity flag (confluency mask): not cytotoxic, agonist: MPLA (TLR4) […]
[6] = agonist: ODN 1826 (TLR9) 0.5 ug/mL
[7] = agonist: Pam2CSK4 (TLR2/6) 0.1 ug/mL
[8] = agonist: Pam3CSK4 (TLR2/1) 0.1 ug/mL
[9] = cytotoxicity flag (confluency mask): cytotoxic (confluency <70% of control), agonist: Imiquimod (TLR7) […]
[10] = cytotoxicity flag (confluency mask): cytotoxic (confluency <70% of control), agonist: MPLA (TLR4) […]

CNc1ccc([N+](=O)[O-])cc1-n1cnc(-c2ccc(C(F)(F)F)cc2)c1
NF-kB SEAP reporter activity [1, 4]: 1.24 | NF-kB SEAP reporter activity [1, 5]: 2.01

CNc1ccc([N+](=O)[O-])cc1-n1cnc(-c2ccc(C(F)(F)F)cc2)c1 (library stock concentration (final ~1000-fold dilution): 10 mM)
NF-kB SEAP reporter activity ([2]; agonist: LPS (TLR4) 0.1 ug/mL): 4.5 | NF-kB SEAP reporter activity [2, 6]: 1.91 | NF-kB SEAP reporter activity [2, 7]: 0.926 | NF-kB SEAP reporter activity [2, 8]: 1.08

Cl.O=C(NC1CCNCC1)c1n[nH]cc1NC(=O)c1c(Cl)cccc1Cl (library stock concentration (final ~1000-fold dilution): 10 mM)
NF-kB SEAP reporter activity ([3]; agonist: LPS (TLR4) 0.1 ug/mL): 1.2 | NF-kB SEAP reporter activity [3, 6]: 1.96 | NF-kB SEAP reporter activity [3, 7]: 0.731 | NF-kB SEAP reporter activity [3, 8]: 0.751

Cl.O=C(NC1CCNCC1)c1n[nH]cc1NC(=O)c1c(Cl)cccc1Cl
NF-kB SEAP reporter activity [1, 9]: 0.646 | NF-kB SEAP reporter activity [1, 10]: 1.19

Cc1[nH]c(/C=C2\C(=O)Nc3ccc(S(=O)(=O)N(C)c4cccc(Cl)c4)cc32)c(C)c1C(=O)N1CCN(C)CC1 (library stock concentration (final ~1000-fold dilution): 10 mM)
NF-kB SEAP reporter activity ([2]; agonist: LPS (TLR4) 0.1 ug/mL): 1.08 | NF-kB SEAP reporter activity [2, 6]: 0.594 | NF-kB SEAP reporter activity [2, 7]: 0.796 | NF-kB SEAP reporter activity [2, 8]: 0.591

Cc1[nH]c(/C=C2\C(=O)Nc3ccc(S(=O)(=O)N(C)c4cccc(Cl)c4)cc32)c(C)c1C(=O)N1CCN(C)CC1
NF-kB SEAP reporter activity [1, 4]: 1.01 | NF-kB SEAP reporter activity [1, 5]: 0.929

CCCCCCc1ccc(O)cc1O (library stock concentration (final ~1000-fold dilution): 10 mM)
NF-kB SEAP reporter activity ([2]; agonist: LPS (TLR4) 0.1 ug/mL): 0.991 | NF-kB SEAP reporter activity [2, 6]: 0.654 | NF-kB SEAP reporter activity [2, 7]: 0.877 | NF-kB SEAP reporter activity [2, 8]: 0.866

CCCCCCc1ccc(O)cc1O
NF-kB SEAP reporter activity [1, 4]: 1.11 | NF-kB SEAP reporter activity [1, 5]: 0.77

CN(C)Cc1ccc(-c2nc3cccc4c3n2CCNC4=O)cc1 (library stock concentration (final ~1000-fold dilution): 10 mM)
NF-kB SEAP reporter activity ([2]; agonist: LPS (TLR4) 0.1 ug/mL): 0.831 | NF-kB SEAP reporter activity [2, 6]: 1.15 | NF-kB SEAP reporter activity [2, 7]: 1.28 | NF-kB SEAP reporter activity [2, 8]: 1.1

CN(C)Cc1ccc(-c2nc3cccc4c3n2CCNC4=O)cc1
NF-kB SEAP reporter activity [1, 4]: 1.12 | NF-kB SEAP reporter activity [1, 5]: 0.857

CC1(C)NC(=O)N(c2ccc([N+](=O)[O-])c(C(F)(F)F)c2)C1=O
NF-kB SEAP reporter activity [1, 5]: 1.05

CC1(C)NC(=O)N(c2ccc([N+](=O)[O-])c(C(F)(F)F)c2)C1=O (library stock concentration (final ~1000-fold dilution): 10 mM)
NF-kB SEAP reporter activity ([2]; agonist: LPS (TLR4) 0.1 ug/mL): 0.916 | NF-kB SEAP reporter activity [2, 6]: 1.05 | NF-kB SEAP reporter activity [2, 7]: 0.946 | NF-kB SEAP reporter activity [2, 8]: 1.17

COc1ccc(C(=O)C2CCN(CC(=O)N(Cc3nc4c(c(=O)[nH]3)COCC4)CC3CC3)CC2)cc1
NF-kB SEAP reporter activity [1, 4]: 1.02 | NF-kB SEAP reporter activity [1, 5]: 1.31

COc1ccc(C(=O)C2CCN(CC(=O)N(Cc3nc4c(c(=O)[nH]3)COCC4)CC3CC3)CC2)cc1 (library stock concentration (final ~1000-fold dilution): 10 mM)
NF-kB SEAP reporter activity ([2]; agonist: LPS (TLR4) 0.1 ug/mL): 1.3 | NF-kB SEAP reporter activity [2, 6]: 1.32 | NF-kB SEAP reporter activity [2, 7]: 1.09 | NF-kB SEAP reporter activity [2, 8]: 1.88

CCCCc1nc(C)c(CC(=S)N(C)C)c(=O)n1Cc1ccc(-c2ccccc2-c2nnn[nH]2)cc1
NF-kB SEAP reporter activity [1, 5]: 1.01

CCCCc1nc(C)c(CC(=S)N(C)C)c(=O)n1Cc1ccc(-c2ccccc2-c2nnn[nH]2)cc1 (library stock concentration (final ~1000-fold dilution): 10 mM)
NF-kB SEAP reporter activity ([2]; agonist: LPS (TLR4) 0.1 ug/mL): 1.14 | NF-kB SEAP reporter activity [2, 6]: 1 | NF-kB SEAP reporter activity [2, 7]: 0.982 | NF-kB SEAP reporter activity [2, 8]: 0.919

COc1ccc(CN2CCN(C(c3ccc(F)cc3)c3ccc(F)cc3)CC2)c(OC)c1OC.Cl.Cl (library stock concentration (final ~1000-fold dilution): 10 mM)
NF-kB SEAP reporter activity ([2]; agonist: LPS (TLR4) 0.1 ug/mL): 1.11 | NF-kB SEAP reporter activity [2, 6]: 1.14 | NF-kB SEAP reporter activity [2, 7]: 0.563 | NF-kB SEAP reporter activity [2, 8]: 0.468

COc1ccc(CN2CCN(C(c3ccc(F)cc3)c3ccc(F)cc3)CC2)c(OC)c1OC.Cl.Cl
NF-kB SEAP reporter activity [1, 4]: 1.67 | NF-kB SEAP reporter activity [1, 5]: 1.31

Cc1ccc2c(c1)c1c(n2CCc2ccc(C)nc2)CCN(C)C1.Cl.Cl
NF-kB SEAP reporter activity [1, 4]: 0.926 | NF-kB SEAP reporter activity [1, 5]: 0.973

Cc1ccc2c(c1)c1c(n2CCc2ccc(C)nc2)CCN(C)C1.Cl.Cl (library stock concentration (final ~1000-fold dilution): 10 mM)
NF-kB SEAP reporter activity ([2]; agonist: LPS (TLR4) 0.1 ug/mL): 0.836 | NF-kB SEAP reporter activity [2, 6]: 0.273 | NF-kB SEAP reporter activity [2, 7]: 0.811 | NF-kB SEAP reporter activity [2, 8]: 0.864

COc1cc(OC)cc(-c2cc3cnc(N)nc3nc2NC(=O)NC(C)(C)C)c1 (library stock concentration (final ~1000-fold dilution): 10 mM)
NF-kB SEAP reporter activity ([2]; agonist: LPS (TLR4) 0.1 ug/mL): 5.36 | NF-kB SEAP reporter activity [2, 6]: 1.02 | NF-kB SEAP reporter activity [2, 7]: 0.578 | NF-kB SEAP reporter activity [2, 8]: 0.747

COc1cc(OC)cc(-c2cc3cnc(N)nc3nc2NC(=O)NC(C)(C)C)c1
NF-kB SEAP reporter activity [1, 4]: 0.989 | NF-kB SEAP reporter activity [1, 5]: 1.1

Nc1ncnc2c1c(-c1cnc3[nH]ccc3c1)nn2C1CCCC1 (library stock concentration (final ~1000-fold dilution): 10 mM)
NF-kB SEAP reporter activity ([2]; agonist: LPS (TLR4) 0.1 ug/mL): 1.19 | NF-kB SEAP reporter activity [2, 6]: 0.991 | NF-kB SEAP reporter activity [2, 7]: 0.736 | NF-kB SEAP reporter activity [2, 8]: 1.11

Nc1ncnc2c1c(-c1cnc3[nH]ccc3c1)nn2C1CCCC1
NF-kB SEAP reporter activity [1, 4]: 0.979 | NF-kB SEAP reporter activity [1, 5]: 0.929

COc1ccc(-c2cc3c(C)nc(N)nc3n(C3CCC(OCCO)CC3)c2=O)cn1 (stereo not given)
NF-kB SEAP reporter activity [1, 9]: 2.29 | NF-kB SEAP reporter activity [1, 10]: 1.89

COc1ccc(-c2cc3c(C)nc(N)nc3n(C3CCC(OCCO)CC3)c2=O)cn1 (stereo not given) (library stock concentration (final ~1000-fold dilution): 10 mM)
NF-kB SEAP reporter activity ([3]; agonist: LPS (TLR4) 0.1 ug/mL): 2.24 | NF-kB SEAP reporter activity [3, 6]: 2.5 | NF-kB SEAP reporter activity [3, 7]: 0.759 | NF-kB SEAP reporter activity [3, 8]: 1.28

Cn1cc(-c2cnn3c(N)c(Br)c(C4CCCNC4)nc23)cn1 (stereo not given) (library stock concentration (final ~1000-fold dilution): 2 mM)
NF-kB SEAP reporter activity ([2]; agonist: LPS (TLR4) 0.1 ug/mL): 1.31 | NF-kB SEAP reporter activity [2, 6]: 1.04 | NF-kB SEAP reporter activity [2, 7]: 1.04 | NF-kB SEAP reporter activity [2, 8]: 1.19
